# Source: the supplement of paper PMC4166925
# ± gives the standard deviation of the averaged measurements. Over roughly 33,000 sequences, “E-score (dimensionless, -0.5 to 0.5)” has its median near -0.049; the highest 2% begin near 0.37. This is one part of the list.
# Tested on: T1, PmTbr T-box DNA-binding domain (GST fusion)
# T1 sequence: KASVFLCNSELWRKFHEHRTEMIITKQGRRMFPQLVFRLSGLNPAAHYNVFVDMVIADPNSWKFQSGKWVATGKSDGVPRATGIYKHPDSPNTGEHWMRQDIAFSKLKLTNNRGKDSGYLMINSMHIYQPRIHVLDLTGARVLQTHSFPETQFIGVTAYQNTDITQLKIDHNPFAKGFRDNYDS
# Assay: PBM E-score of 8-mer (E-score (dimensionless, -0.5 to 0.5)); Tbr is Tbrain of the sea star Patiria miniata (Pm) or the sea urchin Strongylocentrotus purpuratus (Sp); higher = stronger binding preference; most listed sequences are background and not binding sites
# Settings: the construct has about 5 more residues each side
# Summary of the method: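 Using the Universal PBM Analysis Suite, every ungapped 8-mer received an enrichment E-score averaged over duplicate arrays. Probe intensities came from double-stranded Universal Agilent oligonucleotide arrays incubated with 200 nM GST-fused Tbr T-box DNA-binding domain in PBS (pH 7.5). That protein was expressed in BL21 E. coli at 20 °C and purified by glutathione affinity chromatography.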
row,Sequence,PBM E-score of 8-mer
1,CACCGAAC,0.0973 ± 0.03
2,CCCCGTTC,-0.0578 ± 0.03
3,AACCGTAC,-0.1762 ± 0.00077
4,GCGGCCAA,0.0231 ± 0.017
5,ATTCCTGG,-0.248 ± 0.0029
6,GAAGGGGA,-0.169 ± 0.064
7,ATTACTAG,-0.14 ± 0.0034
8,ACATGGGA,0.0421 ± 0.044
9,GGCTTGTA,-0.143 ± 0.026
10,CCCGTAAA,-0.107 ± 0.022
11,AGGCTCCA,-0.174 ± 0.039
12,CATATTAG,-0.0525 ± 0.069
13,GACCTTCC,0.0338 ± 0.01
14,GACCGGTC,-0.0385 ± 0.087
15,GTATGTAA,-0.201 ± 0.1
16,CACAATTA,0.213 ± 0.0069
17,ACACGGAC,0.0644 ± 0.0049
18,CATCTCAC,0.3254 ± 0.00092
19,CTCTCTCA,0.122 ± 0.069
20,CTCCGGCC,-0.25 ± 0.061
21,CACACACC,0.428 ± 0.021
22,AACCGATC,0.0807 ± 0.014
23,GTCACATA,0.263 ± 0.0064
24,AGCACCAA,0.229 ± 0.028
25,AAGGATTG,-0.11 ± 0.039

row,Sequence,PBM E-score of 8-mer
1,ACATCGTG,-0.0121 ± 0.082
2,CCATCCGC,-0.0729 ± 0.035
3,AAGTTTGT,-0.0655 ± 0.12
4,CGGATCAC,0.0737 ± 0.044
5,GCCTTACA,0.00945 ± 0.0023
6,AAGTTCTC,-0.047 ± 0.013
7,AGTAAGCG,0.0307 ± 0.0011
8,CCACCGTC,-0.172 ± 0.078
9,TATGCTAA,0.00432 ± 0.0064
10,AGACAGCC,-0.106 ± 0.092
11,TATACGGA,-0.00401 ± 0.018
12,CCCTTTAA,-0.198 ± 0.09
13,CTGAACGA,-0.256 ± 0.038
14,AAGTACCG,-0.255 ± 0.027
15,CACGCCTG,0.284 ± 0.023
16,CGCATTGC,-0.192 ± 0.0094
17,ATGCCGTA,-0.214 ± 0.059
18,ATCGAAGA,-0.0933 ± 0.08
19,CTCCTCTC,-0.0351 ± 0.013
20,GCCCCCAC,-0.172 ± 0.0032
21,CGTAATAA,0.0313 ± 0.0089
22,TACAGCCA,-0.252 ± 0.035
23,TTCCACAA,0.136 ± 0.0051
24,CGTATCGC,0.2173 ± 0.0016
25,ACGAGGAC,-0.21 ± 0.02

row,Sequence,PBM E-score of 8-mer
1,CGCACTAA,0.199 ± 0.013
2,CAAGGCAG,-0.304 ± 0.0079
3,AGGCGTGA,0.4805 ± 0.00059
4,CCTCAAGG,-0.113 ± 0.057
5,TGGCGTAA,0.00331 ± 0.0098
6,ATGCAGGC,-0.249 ± 0.071
7,CGATCCAC,-0.159 ± 0.05
8,AAAGAGGC,-0.171 ± 0.044
9,ACTGACAC,0.379 ± 0.012
10,AAGGGAAT,-0.106 ± 0.051
11,ATTCCACC,-0.173 ± 0.032
12,GAGCCGAA,-0.0509 ± 0.017
13,AAGTGAAG,0.0945 ± 0.087
14,AAACGGCT,-0.124 ± 0.00042
15,ATGGAGTG,0.126 ± 0.035
16,ACTATCAT,0.0404 ± 0.024
17,AGGTTAGA,-0.141 ± 0.011
18,AGTTCACA,0.395 ± 0.0064
19,TCAATCAA,-0.18 ± 0.035
20,ATCCCCCC,-0.148 ± 0.0099
21,ACCGCAAC,0.0188 ± 0.15
22,CGTATATC,-0.197 ± 0.12
23,CGTGCCTA,-0.0437 ± 0.046
24,CTCAGGCC,-0.35 ± 0.03
25,CTTTTCCA,-0.117 ± 0.032

row,Sequence,PBM E-score of 8-mer
1,AGTACTCG,-0.0641 ± 0.051
2,ACTCCGCT,0.00059 ± 0.053
3,CGCCAGGC,0.0754 ± 0.005
4,GACTCCCA,0.0644 ± 0.041
5,GCGTTATA,0.0969 ± 0.078
6,GGGTCGTA,-0.0793 ± 0.043
7,GACACGAA,0.0713 ± 0.025
8,AGCTCTAG,-0.214 ± 0.056
9,GAATCAAC,-0.054 ± 0.024
10,CATGGGTC,-0.153 ± 0.038
11,TACGTGCA,0.0029 ± 0.0098
12,CACATCAA,0.168 ± 0.039
13,AGAAGGAT,-0.0606 ± 0.024
14,CCTTGAAG,-0.158 ± 0.098
15,ACCCCATA,0.0374 ± 0.0074
16,ACAGTCCC,-0.0109 ± 0.038
17,TAGGGGAA,-0.112 ± 0.034
18,GCATGCAC,-0.134 ± 0.064
19,CCGAATCA,-0.0209 ± 0.062
20,GCCATTAA,-0.111 ± 0.042
21,ACGCCAGC,0.223 ± 0.01
22,TAGCCTCA,-0.278 ± 0.051
23,CTCAATCC,-0.0643 ± 0.012
24,GGCGACTA,0.0427 ± 0.031
25,CTCCCCTA,-0.232 ± 0.0027

row,Sequence,PBM E-score of 8-mer
1,ATTTTACA,0.0319 ± 0.09
2,CGCTTGCA,0.125 ± 0.0022
3,CGCCGCAG,-0.0564 ± 0.044
4,CAACGGAC,0.0874 ± 0.13
5,ATGGGCCC,-0.128 ± 0.015
6,CTTCGTGC,-0.0507 ± 0.059
7,AGGGCGTC,0.108 ± 0.062
8,TCCCGACA,0.0834 ± 0.073
9,AAAGAATA,-0.00788 ± 0.042
10,GTCCTCTA,-0.22 ± 0.011
11,AGACTTCA,-0.0394 ± 0.0082
12,AATAAGAA,-0.197 ± 0.089
13,AATTGGTA,-0.124 ± 0.072
14,CGATTCAG,-0.0206 ± 0.072
15,GCTGTCTA,0.0607 ± 0.03
16,CCATTAGC,0.093 ± 0.067
17,AAGAGTCT,-0.294 ± 0.015
18,CAAGGTCG,0.004 ± 0.014
19,CACTGAAG,-0.0542 ± 0.036
20,CGGGCCTC,-0.161 ± 0.012
21,CGAGTTAA,0.1978 ± 0.0014
22,AAAACACC,0.348 ± 0.031
23,CTTCAGCC,-0.134 ± 0.022
24,ACGTAGCG,-0.0316 ± 0.038
25,ACGACAAA,-0.0758 ± 0.068

row,Sequence,PBM E-score of 8-mer
1,AGCAGGCA,-0.0956 ± 0.015
2,TACCACAA,-0.0323 ± 0.0016
3,AGTCGATC,-0.0863 ± 0.0044
4,TCCTAACA,0.265 ± 0.0096
5,CGGCGGGC,-0.224 ± 0.052
6,GGTAGTTA,-0.0453 ± 0.015
7,ACGCTGGG,-0.0401 ± 0.05
8,GTGATTCA,0.145 ± 0.04
9,CGTAATTA,-0.193 ± 0.0081
10,CGTACGAC,-0.0777 ± 0.0065
11,CAGATCAC,0.0588 ± 0.011
12,GGAGTCGA,0.0754 ± 0.0085
13,CGATGGAG,-0.109 ± 0.038
14,ACTGGGAT,0.0295 ± 0.012
15,AGGCAAGG,-0.216 ± 0.0041
16,CGGCAGGC,-0.0598 ± 0.015
17,ACATATAC,-0.0692 ± 0.026
18,ATGGACGG,-0.248 ± 0.014
19,CAGTCCGC,0.028 ± 0.053
20,CACCGTGG,0.209 ± 0.0039
21,GGCTGCGA,0.167 ± 0.044
22,AGCTAAAG,-0.205 ± 0.036
23,CATCAAAG,-0.0524 ± 0.035
24,ACTACGTG,0.115 ± 0.04
25,AAACCTTA,-0.0234 ± 0.053

row,Sequence,PBM E-score of 8-mer
1,AAACTATA,-0.022 ± 0.096
2,ACGACGCC,0.13 ± 0.0084
3,ATGCGAGA,0.144 ± 0.02
4,CCGCTGCC,-0.0631 ± 0.0041
5,CAAATACC,-0.0183 ± 0.11
6,ATCGTGAG,0.166 ± 0.0089
7,CGCGTCAA,0.308 ± 0.0074
8,AGCCAAAC,0.0279 ± 0.0027
9,CGAATCTC,0.0196 ± 0.022
10,ATACTAAA,-0.0773 ± 0.064
11,CAATCGGG,-0.195 ± 0.031
12,CTGCGTCC,-0.282 ± 0.0038
13,GGCTTTAA,-0.168 ± 0.055
14,GAGATCTC,0.213 ± 0.061
15,ATCCTGTA,-0.0772 ± 0.04
16,AGCAAATG,-0.154 ± 0.061
17,TAGAGACA,-0.0816 ± 0.018
18,GGCATTAC,-0.165 ± 0.0079
19,AGATGAGC,-0.328 ± 0.058
20,TATGTAGA,-0.0657 ± 0.046
21,CCGAGCTA,-0.0153 ± 0.082
22,CACGAGGA,-0.138 ± 0.032
